Reference: patent US20110319597A1 (CAPHALON AUSTRALIA, published 2011)
Each block holds one binder with its values, some of them ahead of it.

Tests used:
[1] = molecular target: T1, recombinant human TNFα (CytoLab) (human, UniProt P01375 part only); assay: ELISA on coated human TNFα
T1 construct: coated on the ELISA plate at 1 µg/ml; also called Tumour necrosis factor alpha

recombinant human TNFα = recombinant human TNFα (human, UniProt P01375 part only); assay: cell-based or functional assay

B1: TNFα dAb Fc variant F83L (Fc fusion, name in Kabat numbering)
chain: DIQMTQSPSSLSASVGDRVTITCRASQAIDSYLHWYQQKPGKAPKLLIYSASNLETGVPSRFSGSGSGTDFTLTISSLLPEDLATYYCQQVVWRPFTFGQGTKVEIKRV[human IgG1 Fc with changes left out]
A450 (AU) [1]: 1 AU | Standardized EC50, L929 neutralization assay (5-point) (recombinant human TNFα): 0.636 µg/mL

B4: TNFα dAb Fc variant G41H (Fc fusion, name in Kabat numbering)
chain: DIQMTQSPSSLSASVGDRVTITCRASQAIDSYLHWYQQKPHKAPKLLIYSASNLETGVPSRFSGSGSGTDFTLTISSLLPEDFATYYCQQVVWRPFTFGQGTKVEIKRV[human IgG1 Fc with changes left out]
A450 (AU) [1]: 0.925 AU | Standardized EC50, L929 neutralization assay (5-point) (recombinant human TNFα): 2.41 µg/mL

B7: TNFα dAb Fc variant K42Y (Fc fusion, name in Kabat numbering)
chain: DIQMTQSPSSLSASVGDRVTITCRASQAIDSYLHWYQQKPGYAPKLLIYSASNLETGVPSRFSGSGSGTDFTLTISSLLPEDFATYYCQQVVWRPFTFGQGTKVEIKRV[human IgG1 Fc with changes left out]
A450 (AU) [1]: 1.01 AU | Standardized EC50, L929 neutralization assay (5-point) (recombinant human TNFα): 3.35 µg/mL

B8: TNFα dAb Fc variant F83S (Fc fusion, name in Kabat numbering)
chain: DIQMTQSPSSLSASVGDRVTITCRASQAIDSYLHWYQQKPGKAPKLLIYSASNLETGVPSRFSGSGSGTDFTLTISSLLPEDSATYYCQQVVWRPFTFGQGTKVEIKRV[human IgG1 Fc with changes left out]
A450 (AU) [1]: 0.503 AU | Standardized EC50, L929 neutralization assay (5-point) (recombinant human TNFα): 0.839 µg/mL

B9: TNFα dAb Fc variant G57D (Fc fusion, name in Kabat numbering)
chain: DIQMTQSPSSLSASVGDRVTITCRASQAIDSYLHWYQQKPGKAPKLLIYSASNLETDVPSRFSGSGSGTDFTLTISSLLPEDFATYYCQQVVWRPFTFGQGTKVEIKRV[human IgG1 Fc with changes left out]
A450 (AU) [1]: 0.473 AU | Standardized EC50, L929 neutralization assay (5-point) (recombinant human TNFα): 0.948 µg/mL

B11: TNFα dAb Fc variant F83Q (Fc fusion, name in Kabat numbering)
chain: DIQMTQSPSSLSASVGDRVTITCRASQAIDSYLHWYQQKPGKAPKLLIYSASNLETGVPSRFSGSGSGTDFTLTISSLLPEDQATYYCQQVVWRPFTFGQGTKVEIKRV[human IgG1 Fc with changes left out]
A450 (AU) [1]: 1.02 AU | Standardized EC50, L929 neutralization assay (5-point) (recombinant human TNFα): 1.04 µg/mL

B13: TNFα dAb Fc variant G57H (Fc fusion, name in Kabat numbering)
chain: DIQMTQSPSSLSASVGDRVTITCRASQAIDSYLHWYQQKPGKAPKLLIYSASNLETHVPSRFSGSGSGTDFTLTISSLLPEDFATYYCQQVVWRPFTFGQGTKVEIKRV[human IgG1 Fc with changes left out]
A450 (AU) [1]: 1.19 AU | Standardized EC50, L929 neutralization assay (5-point) (recombinant human TNFα): 0.795 µg/mL

B14: TNFα dAb Fc variant K45L (Fc fusion, name in Kabat numbering)
chain: DIQMTQSPSSLSASVGDRVTITCRASQAIDSYLHWYQQKPGKAPLLLIYSASNLETGVPSRFSGSGSGTDFTLTISSLLPEDFATYYCQQVVWRPFTFGQGTKVEIKRV[human IgG1 Fc with changes left out]
A450 (AU) [1]: 1.11 AU | Standardized EC50, L929 neutralization assay (5-point) (recombinant human TNFα): 1.27 µg/mL

B15: TNFα dAb Fc variant K42Q (Fc fusion, name in Kabat numbering)
chain: DIQMTQSPSSLSASVGDRVTITCRASQAIDSYLHWYQQKPGQAPKLLIYSASNLETGVPSRFSGSGSGTDFTLTISSLLPEDFATYYCQQVVWRPFTFGQGTKVEIKRV[human IgG1 Fc with changes left out]
A450 (AU) [1]: 0.903 AU | Standardized EC50, L929 neutralization assay (5-point) (recombinant human TNFα): 1.06 µg/mL

B17: TNFα dAb Fc variant K42A (Fc fusion, name in Kabat numbering)
chain: DIQMTQSPSSLSASVGDRVTITCRASQAIDSYLHWYQQKPGAAPKLLIYSASNLETGVPSRFSGSGSGTDFTLTISSLLPEDFATYYCQQVVWRPFTFGQGTKVEIKRV[human IgG1 Fc with changes left out]
A450 (AU) [1]: 0.872 AU | Standardized EC50, L929 neutralization assay (5-point) (recombinant human TNFα): 0.723 µg/mL

B18: TNFα dAb Fc variant G57P (Fc fusion, name in Kabat numbering)
chain: DIQMTQSPSSLSASVGDRVTITCRASQAIDSYLHWYQQKPGKAPKLLIYSASNLETPVPSRFSGSGSGTDFTLTISSLLPEDFATYYCQQVVWRPFTFGQGTKVEIKRV[human IgG1 Fc with changes left out]
A450 (AU) [1]: 0.496 AU | Standardized EC50, L929 neutralization assay (5-point) (recombinant human TNFα): 6.53 µg/mL

B19: TNFα dAb Fc variant G66Y (Fc fusion, name in Kabat numbering)
chain: DIQMTQSPSSLSASVGDRVTITCRASQAIDSYLHWYQQKPGKAPKLLIYSASNLETGVPSRFSGSYSGTDFTLTISSLLPEDFATYYCQQVVWRPFTFGQGTKVEIKRV[human IgG1 Fc with changes left out]
A450 (AU) [1]: 0.909 AU | Standardized EC50, L929 neutralization assay (5-point) (recombinant human TNFα): 2.44 µg/mL

B20: TNFα dAb Fc variant G68S (Fc fusion, name in Kabat numbering)
chain: DIQMTQSPSSLSASVGDRVTITCRASQAIDSYLHWYQQKPGKAPKLLIYSASNLETGVPSRFSGSGSSTDFTLTISSLLPEDFATYYCQQVVWRPFTFGQGTKVEIKRV[human IgG1 Fc with changes left out]
A450 (AU) [1]: 1.01 AU | Standardized EC50, L929 neutralization assay (5-point) (recombinant human TNFα): 2.54 µg/mL

B21: TNFα dAb Fc variant G57A (Fc fusion, name in Kabat numbering)
chain: DIQMTQSPSSLSASVGDRVTITCRASQAIDSYLHWYQQKPGKAPKLLIYSASNLETAVPSRFSGSGSGTDFTLTISSLLPEDFATYYCQQVVWRPFTFGQGTKVEIKRV[human IgG1 Fc with changes left out]
A450 (AU) [1]: 1.18 AU | Standardized EC50, L929 neutralization assay (5-point) (recombinant human TNFα): 2.06 µg/mL

B22: TNFα dAb Fc variant G57Q (Fc fusion, name in Kabat numbering)
chain: DIQMTQSPSSLSASVGDRVTITCRASQAIDSYLHWYQQKPGKAPKLLIYSASNLETQVPSRFSGSGSGTDFTLTISSLLPEDFATYYCQQVVWRPFTFGQGTKVEIKRV[human IgG1 Fc with changes left out]
A450 (AU) [1]: 1.11 AU | Standardized EC50, L929 neutralization assay (5-point) (recombinant human TNFα): 0.761 µg/mL

B23: TNFα dAb Fc variant K42S (Fc fusion, name in Kabat numbering)
chain: DIQMTQSPSSLSASVGDRVTITCRASQAIDSYLHWYQQKPGSAPKLLIYSASNLETGVPSRFSGSGSGTDFTLTISSLLPEDFATYYCQQVVWRPFTFGQGTKVEIKRV[human IgG1 Fc with changes left out]
A450 (AU) [1]: 1.09 AU | Standardized EC50, L929 neutralization assay (5-point) (recombinant human TNFα): 0.995 µg/mL

More lines, now with the values ahead:

A450 (AU) [1]: 1.04 AU | Standardized EC50, L929 neutralization assay (5-point) (recombinant human TNFα): 5.29 µg/mL
B2: TNFα dAb Fc variant P40K (Fc fusion, name in Kabat numbering)
chain: DIQMTQSPSSLSASVGDRVTITCRASQAIDSYLHWYQQKKGKAPKLLIYSASNLETGVPSRFSGSGSGTDFTLTISSLLPEDFATYYCQQVVWRPFTFGQGTKVEIKRV[human IgG1 Fc with changes left out]

A450 (AU) [1]: 0.99 AU | Standardized EC50, L929 neutralization assay (5-point) (recombinant human TNFα): 3.29 µg/mL
B3: TNFα dAb Fc variant P40H (Fc fusion, name in Kabat numbering)
chain: DIQMTQSPSSLSASVGDRVTITCRASQAIDSYLHWYQQKHGKAPKLLIYSASNLETGVPSRFSGSGSGTDFTLTISSLLPEDFATYYCQQVVWRPFTFGQGTKVEIKRV[human IgG1 Fc with changes left out]

A450 (AU) [1]: 1.09 AU | Standardized EC50, L929 neutralization assay (5-point) (recombinant human TNFα): 1.64 µg/mL
B5: TNFα dAb Fc variant P40D (Fc fusion, name in Kabat numbering)
chain: DIQMTQSPSSLSASVGDRVTITCRASQAIDSYLHWYQQKDGKAPKLLIYSASNLETGVPSRFSGSGSGTDFTLTISSLLPEDFATYYCQQVVWRPFTFGQGTKVEIKRV[human IgG1 Fc with changes left out]

A450 (AU) [1]: 1.26 AU | Standardized EC50, L929 neutralization assay (5-point) (recombinant human TNFα): 0.503 µg/mL
B6: TNFα dAb Fc variant L79K (Fc fusion, name in Kabat numbering)
chain: DIQMTQSPSSLSASVGDRVTITCRASQAIDSYLHWYQQKPGKAPKLLIYSASNLETGVPSRFSGSGSGTDFTLTISSLKPEDFATYYCQQVVWRPFTFGQGTKVEIKRV[human IgG1 Fc with changes left out]

A450 (AU) [1]: 1.41 AU | Standardized EC50, L929 neutralization assay (5-point) (recombinant human TNFα): 0.392 µg/mL
B10: TNFα dAb Fc variant L79Y (Fc fusion, name in Kabat numbering)
chain: DIQMTQSPSSLSASVGDRVTITCRASQAIDSYLHWYQQKPGKAPKLLIYSASNLETGVPSRFSGSGSGTDFTLTISSLYPEDFATYYCQQVVWRPFTFGQGTKVEIKRV[human IgG1 Fc with changes left out]

A450 (AU) [1]: 1.38 AU | Standardized EC50, L929 neutralization assay (5-point) (recombinant human TNFα): 1.35 µg/mL
B12: TNFα dAb Fc variant L79A (Fc fusion, name in Kabat numbering)
chain: DIQMTQSPSSLSASVGDRVTITCRASQAIDSYLHWYQQKPGKAPKLLIYSASNLETGVPSRFSGSGSGTDFTLTISSLAPEDFATYYCQQVVWRPFTFGQGTKVEIKRV[human IgG1 Fc with changes left out]

A450 (AU) [1]: 1.04 AU | Standardized EC50, L929 neutralization assay (5-point) (recombinant human TNFα): 0.537 µg/mL
B16: TNFα dAb Fc variant K45S (Fc fusion, name in Kabat numbering)
chain: DIQMTQSPSSLSASVGDRVTITCRASQAIDSYLHWYQQKPGKAPSLLIYSASNLETGVPSRFSGSGSGTDFTLTISSLLPEDFATYYCQQVVWRPFTFGQGTKVEIKRV[human IgG1 Fc with changes left out]

A450 (AU) [1]: 1.1 AU | Standardized EC50, L929 neutralization assay (5-point) (recombinant human TNFα): 1.38 µg/mL
B24: TNFα dAb Fc variant K45Y (Fc fusion, name in Kabat numbering)
chain: DIQMTQSPSSLSASVGDRVTITCRASQAIDSYLHWYQQKPGKAPYLLIYSASNLETGVPSRFSGSGSGTDFTLTISSLLPEDFATYYCQQVVWRPFTFGQGTKVEIKRV[human IgG1 Fc with changes left out]
